We go through 73 sequences from paper PMC10726135.

This is one part of the list. At the low end of the ranking the order means little. The protein was read in a cell extract, so binding may be indirect.

This experiment concerns the target T1, HNF4alpha2 (COS-7 nuclear extract) (UniProt P41235).
T1 sequence: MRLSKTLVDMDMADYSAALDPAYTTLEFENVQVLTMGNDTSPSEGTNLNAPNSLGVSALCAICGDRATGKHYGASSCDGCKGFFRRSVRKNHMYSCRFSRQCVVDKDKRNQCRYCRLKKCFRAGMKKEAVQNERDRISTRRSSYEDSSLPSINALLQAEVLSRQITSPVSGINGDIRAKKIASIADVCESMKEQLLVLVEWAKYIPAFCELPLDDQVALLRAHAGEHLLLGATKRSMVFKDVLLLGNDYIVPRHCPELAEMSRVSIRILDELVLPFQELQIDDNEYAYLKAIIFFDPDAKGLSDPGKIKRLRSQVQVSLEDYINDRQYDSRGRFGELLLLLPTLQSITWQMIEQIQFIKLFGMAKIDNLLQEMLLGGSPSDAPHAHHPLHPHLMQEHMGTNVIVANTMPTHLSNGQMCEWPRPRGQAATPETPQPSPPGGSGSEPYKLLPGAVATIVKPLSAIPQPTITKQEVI
In words: protein-binding microarray. Particulars: COS-7 nuclear extract on double-stranded Agilent 4x180k PBM; binding buffer, salt, pH and temperature not given; high values mean tight binding; double strand, one strand shown; sequences stand for … in …GCCTAGGGAGATTAGAGTATCGGTCGA
For AAGTAGGGAGGAGGGGAGGGGCCCATGTGG, the binding signal (log2 normalized intensity) is -1.02. Regarding CCGAGGTCACTGTATGCCCGAAAGACGCGG, the binding signal (log2 normalized intensity) was -0.74. The value for TAAAACCATGCAAATTGCTGACTTTCTGTG was -0.773.

Turning to TAGCATCACGAAAGGCAACATCTTGAGCCA, the binding signal (log2 normalized intensity) is -1.03. As for TTGGGCGCCGGAACTGGTCCGGCCCGACTC, the binding signal (log2 normalized intensity) is -1.05.

For CTACAATCCTCTAAAAAAATAGTTTCAACT, the binding signal (log2 normalized intensity) is -0.731. AGGACATTTCAGCAAAGTTCAGAGAGGAAT: the binding signal (log2 normalized intensity) was -0.746.

Take TACTTAGATCAAGATTTTCAACTTGAGGAA: the binding signal (log2 normalized intensity) was -0.715. For the sequence TTTCCATTTACCTCCGCTGAACCTAGAGCT, the binding signal (log2 normalized intensity) was -1.11. As to TAAGCTACTGAAAATGACCTTTGTTCCCTG, the binding signal (log2 normalized intensity) was 8.2. Next, ATGTTCAAGAAGTTCCAAAGGCCAGTGTGG: 1.2; TGGAAGTCGCCGTGAGGTTATTTGCAGACT: 0.0984. Consider AAAGTAAGGTGAAGCCCAGCAGCTCCAGGA, for which the binding signal (log2 normalized intensity) was -1.4. Take AGAACTCTTCGAAGACACAAAGCTTGGGTT: the binding signal (log2 normalized intensity) is -1.14.

Take GTATCTGATCTGTGTTTCCACAAACACAGA: the binding signal (log2 normalized intensity) is -0.616. With ATCAAAGTATGAGAGCCTGAGAACACTTAT, the binding signal (log2 normalized intensity) was -1.11. The value for CTGACATTCTCCACTTGGTGACTGTCATTT was 0.191. On to AGGAAGGTCTGATGGGCCAGGCAGGACAGT, for which the binding signal (log2 normalized intensity) is -1.16.

For GGGATTACAGGCGTGAGCCACCGCGCCCCG, the binding signal (log2 normalized intensity) is -0.976. Next, GAGCACTCATTCCTATTCGGTGCTGACCTT: 3.47.

ACTGATAATTGAAAACAGAGATTGGGACTA: the binding signal (log2 normalized intensity) was -1.11. On to ATGTCTAAGGTTTCTCAGCCCCATCCCCCA, for which the binding signal (log2 normalized intensity) was 5.41. In the case of GAATGTAAATAGCTAGGTACTTTGATCTAC, the binding signal (log2 normalized intensity) was 1.56. Consider CAGGTTCAAAGGGCTTAATCTTTCCTGCCT, for which the binding signal (log2 normalized intensity) came to 1.18.

On to AGATCAAGATTTTCAACTTGAGGAAGACAA, for which the binding signal (log2 normalized intensity) was -1.08. Next, TCTGGCCTTTTTTTTGTGTGTGTGTCAGAG: 2.77; TTGACCAAAGTACAGTAATTTCACTGATAT: 1.55; ATACATTTTTAGGTGGATGCCTAGGATTCT: -0.973. With TTGGAGATAAAGGAACAGGCCCCAGGGACT, the binding signal (log2 normalized intensity) was -1.09. Regarding TTTGAGTCATAAGAAACATTTTACAACCTA, the binding signal (log2 normalized intensity) is -1.16. On to GGCACAATGCTGCAATTCTCTTTGCCAAAG, for which the binding signal (log2 normalized intensity) was -1.04. For the sequence GGAACAAAGGTCAGTCCCGCAGTGAGGGAC, the binding signal (log2 normalized intensity) turned out to be 2.4. TAACCAGTGAAATTGACAAGAGTGTGGCTC: the binding signal (log2 normalized intensity) came to 0.829. Regarding GATTGCTTAATGCAAACTCCAGCATGAGGG, the binding signal (log2 normalized intensity) is -1.21. For TTTGTGTGAGGGAGAAGTTTTATGGCAGGG, the binding signal (log2 normalized intensity) was 1.19. With AAGCAGCATAGGGAGAATGATAAGATATAT, the binding signal (log2 normalized intensity) is -1.06.

Consider TCAGCCTGGCTGAAGACCTGTACAGGGACT, for which the binding signal (log2 normalized intensity) stood at 1.65. Consider AGGCCAAGCAGCTGTGATGAGGCCAGCAGG, for which the binding signal (log2 normalized intensity) is -1.06. In the case of TCTGTGTACAAAGCCCCATATTCATAGACT, the binding signal (log2 normalized intensity) worked out at 2.32.

Turning to TGCTTGGAATGCTATTTGCATTGACACAAC, the binding signal (log2 normalized intensity) was 0.296. TAGGACAGAGCAGATGAAAGTAGTTGGGGA: the binding signal (log2 normalized intensity) is -1.02.

GGGGAACAGGCCTCCCCCCTTCTGTTTCCA: the binding signal (log2 normalized intensity) was found to be 3.15. ATTACCTGGTCAGAAGAAACATGCGATACT: the binding signal (log2 normalized intensity) was -1.25. Turning to TAGGTGGTCTGTTTGTGAAACAGTGGGCAA, the binding signal (log2 normalized intensity) is 1.18. With AAGTTACAAGATCTTTGGACTATTGTGAAG, the binding signal (log2 normalized intensity) came to 2.77. Next, GTAAAGGGTGACTTTCCAGAACTATCATAC: -0.841. Turning to TCAACCTGTGAAAATTGGTACTGGACATGG, the binding signal (log2 normalized intensity) was determined as 1.38.

For CCTGGCTTGTAATTCAAGACTATAGACTGT, the binding signal (log2 normalized intensity) was determined as 0.945. For GACCATGTGATGTGAAGAGTGTGGACTTTC, the binding signal (log2 normalized intensity) is 4.26. With GCGCCCGTAATCCCAGCTTATGTTTGCAAG, the binding signal (log2 normalized intensity) is -0.714. The value for TTATCTTGGGGCTAATGTCTCTCTGGCCGG was 1.29.

TTGTTTACTCATGTGGTCCTAAGACTAACC: the binding signal (log2 normalized intensity) was -0.3. In the case of CCTGTGATACAACGGTTCAAAGGACAGACT, the binding signal (log2 normalized intensity) amounted to 1.54. Turning to TTCTAGGTAATCACCCTCTCCACCCCCATG, the binding signal (log2 normalized intensity) stood at 4.99. On to CAAGGTTTGTAACAAGTGCTTTCTTCCCTC, for which the binding signal (log2 normalized intensity) is -0.296. The value for TCATGGGTGACCCGTTAAGAATGAGACATT was 1.53; that for GACCTTGAAATGCCATGTGATCTCTAGACT was 0.785; that for AGCTGACGCCCCACCCCCTCCACCCCTGCC was 6.82. Take CTCACCTGGCTTCCCTTTGATCTTTCCCTT: the binding signal (log2 normalized intensity) was determined as 1.85. For GAGGCTGCTCTCTGTCCCTGCACCCTACCC, the binding signal (log2 normalized intensity) amounted to 1.6.

Turning to CAACCACTCTTATCAGACAGGATATTTTGA, the binding signal (log2 normalized intensity) was determined as 1.11. In the case of CTCTCCCCTCGACGCGCCGGCGCAGCCGCG, the binding signal (log2 normalized intensity) is 1.72. Regarding GTAGGCATAGGAGAAACACATAAACCCTGA, the binding signal (log2 normalized intensity) was -0.951. As to TTCAGCCATTTTATGACCATGAGGTGACGG, the binding signal (log2 normalized intensity) came to 1.6.

With TCTTTATTTATTAACTGGAGATAACACAAC, the binding signal (log2 normalized intensity) is 1.31. Regarding ACACCTGTGGGTAATTAATCTGATCGCCCT, the binding signal (log2 normalized intensity) was 0.983. Take TCTAATCAGGTCGCTGCCTGCCCCTCTGAC: the binding signal (log2 normalized intensity) came to 2.89. The value for CGGGTCAAGGGTTCAGGGCTCAGTTGACAT was 2.13; that for GCTCAGGCACATTCTGCTGTGTATCACCTC was -0.959.

Regarding AGCATGCTTGGAATATTTAAGGATCCAGAC, the binding signal (log2 normalized intensity) is 0.136. Next, TCATAGTAAATCCACTTCTGAGGAGAAGAA: -1.1; CCTTTGTGCTGACTAAGAGGAGAAGCAAAT: -0.747. With TTGTCCCTTTTCTATCCAGATGATCTTTAC, the binding signal (log2 normalized intensity) is 2.25.
